The list shows a part of the results.

The test system of one assay is HSkMC. The experiment in a line: cytotoxicity call (relative viability < 0.9). Conditions: 10 µM.
A further assay has as its system HepG2. The experiment in a line: cytotoxicity call (relative viability < 0.9). The settings on record: 10 µM.
The next assay relates to S. aureus RN4220. As to the kind of experiment: growth inhibition call (relative growth <= 0.2). The settings on record: 50 µM.

In the case of `C=CCC[C@H](Cc1ccc(F)cc1)C(=O)O[C@H](CNC(=O)[C@@H](CC=C)CC(=O)N[C@@H](CO)Cc1ccccc1)c1ccccc1`, the cytotoxicity call in the assay on HSkMC and with HepG2 was “inactive” in each case. In addition, the growth inhibition call with S. aureus RN4220 is “inactive”.

With `Cc1ccc(C(=N)NO)n1C`, the cytotoxicity call in the assay with HSkMC and in the assay with HepG2 was “inactive” in each case. The growth inhibition call with S. aureus RN4220 is “inactive”.

For the compound `c1cn2c(n1)NCC2`, the cytotoxicity call with HSkMC and with HepG2 was “inactive” in each case. Besides, in the assay on S. aureus RN4220, the growth inhibition call was “inactive”.

On to `C[C@@H]1CCCCO[C@@H](CN(C)C(=O)NC2CCCCC2)[C@H](C)CN([C@@H](C)CO)C(=O)c2cc(NC(=O)CCC(F)(F)F)ccc2O1`, for which the cytotoxicity call in the assay with HSkMC and with HepG2 was “inactive” in each case. Moreover, the growth inhibition call in the assay on S. aureus RN4220 was “inactive”.

For the compound `C[C@@H]1CN([C@H](C)CO)C(=O)c2cccc(NC(=O)Nc3ccc4c(c3)OCO4)c2O[C@H]1CN(C)Cc1ccc(Oc2ccccc2)cc1`, the cytotoxicity call in the assay on HSkMC and in the assay on HepG2 was “active” in each case. Moreover, the growth inhibition call with S. aureus RN4220 was “inactive”.

In the case of `C[C@H](CO)N1C[C@H](C)[C@@H](CN(C)Cc2ccc(C(=O)O)cc2)OCCCC[C@H](C)Oc2ccc(NS(=O)(=O)c3ccc(Cl)cc3)cc2C1=O`, the cytotoxicity call in the assay on HSkMC and in the assay on HepG2 was “inactive” each time. In the assay with S. aureus RN4220, the growth inhibition call is “inactive”.

As for `C[C@@H]1CCCCO[C@H](CN(C)S(=O)(=O)c2ccc(Cl)cc2)[C@H](C)CN([C@H](C)CO)C(=O)c2cc(NS(=O)(=O)c3cccs3)ccc2O1`, the cytotoxicity call with HSkMC and with HepG2 was “inactive” throughout. Further, the growth inhibition call in the assay with S. aureus RN4220 is “inactive”.

On to `COc1ccc(-c2cnc3c(c2)C(=O)N([C@H](C)CO)C[C@@H](C)[C@H](CN(C)C(=O)Cc2ccccn2)O3)cc1`, for which the cytotoxicity call in the assay with HSkMC and with HepG2 was “inactive” each time. In addition, the growth inhibition call with S. aureus RN4220 was “inactive”.

As for `C[C@@H]1CN([C@@H](C)CO)C(=O)c2cc(NC(=O)c3ccccc3)ccc2O[C@@H](C)CCCCO[C@H]1CN(C)CC1CCCCC1`, in the assay with HSkMC, the cytotoxicity call is “inactive”. Also, the cytotoxicity call with HepG2 was “active”. Besides, in the assay with S. aureus RN4220, the growth inhibition call is “inactive”.

Take `COc1ccc(NC(=O)Nc2ccc3c(c2)C(=O)N([C@@H](C)CO)C[C@H](C)[C@H](CN(C)Cc2ccccc2)OCCCC[C@@H](C)O3)cc1`: the cytotoxicity call in the assay with HSkMC and in the assay with HepG2 was “inactive” in each case. Further, the growth inhibition call with S. aureus RN4220 is “inactive”.

Regarding `COCCNC(=O)C[C@H]1C[C@@H]2c3cc(NS(C)(=O)=O)ccc3O[C@@H]2[C@H](CO)O1`, the cytotoxicity call in the assay with HSkMC and in the assay on HepG2 was “inactive” in each case. For the same compound, the growth inhibition call in the assay with S. aureus RN4220 is “inactive”.

Take `C[C@@H]1CN([C@H](C)CO)S(=O)(=O)c2ccc(C#CCN(C)C)cc2O[C@@H]1CN(C)C(=O)CN(C)C`: the cytotoxicity call with HSkMC and with HepG2 was “inactive” each time. Moreover, the growth inhibition call in the assay on S. aureus RN4220 is “inactive”.

For the compound `COC(=O)[C@H](Cc1ccccc1)N1CC2=C[C@@H]([C@@H](O)CCn3cc(CCC(=O)NO)nn3)n3c(=O)n(C)c(=O)n3[C@@H]2[C@@H](C2CC2)O1`, the cytotoxicity call in the assay on HSkMC and in the assay on HepG2 was “inactive” each time. In addition, the growth inhibition call in the assay with S. aureus RN4220 was “inactive”.

For `C[C@H](CO)N1C[C@H](C)[C@H](CN(C)S(=O)(=O)c2ccc3ccccc3c2)OCc2cn(nn2)CCCC1=O`, the cytotoxicity call in the assay with HSkMC and with HepG2 was “inactive” each time. Also, in the assay with S. aureus RN4220, the growth inhibition call was “inactive”.

Regarding `C[C@@H]1CN([C@@H](C)CO)C(=O)c2cc(NS(=O)(=O)c3cccs3)ccc2O[C@H]1CN(C)C(=O)Nc1cccc2ccccc12`, the cytotoxicity call with HSkMC and in the assay with HepG2 was “inactive” throughout. Also, the growth inhibition call in the assay on S. aureus RN4220 is “inactive”.

`Cc1noc(C)c1NC(=O)Nc1ccc2c(c1)C(=O)N([C@H](C)CO)C[C@@H](C)[C@@H](CN(C)Cc1ccc(-c3ccccc3)cc1)O2`: the cytotoxicity call with HSkMC and in the assay with HepG2 was “inactive” throughout. Moreover, the growth inhibition call in the assay on S. aureus RN4220 is “inactive”.

As for `CC(C)COc1c[nH]c(CO)cc1=O`, the cytotoxicity call in the assay on HSkMC and with HepG2 was “inactive” throughout. Moreover, the growth inhibition call in the assay with S. aureus RN4220 was “inactive”.

Turning to `O=C(C[C@H]1CC[C@H]2[C@@H](COC[C@H](O)CN2S(=O)(=O)c2cccc(F)c2)O1)NCCCN1CCOCC1`, the cytotoxicity call in the assay with HSkMC and in the assay with HepG2 was “inactive” each time. Moreover, the growth inhibition call with S. aureus RN4220 is “inactive”.

`COc1ccc(S(=O)(=O)Nc2ccc3c(c2)CC(=O)N([C@H](C)CO)C[C@H](C)[C@H](CN(C)S(=O)(=O)c2c(C)noc2C)O3)cc1`: the cytotoxicity call with HSkMC and in the assay with HepG2 was “inactive” each time. In the assay with S. aureus RN4220, the growth inhibition call is “inactive”.

In the case of `Cc1ccc(S(=O)(=O)C[C@H](C)N2CCOCC2)c(S(=O)(=O)C[C@@H](C)N2CCOCC2)c1`, the cytotoxicity call with HSkMC and with HepG2 was “inactive” each time. Moreover, in the assay with S. aureus RN4220, the growth inhibition call is “inactive”.

`Cc1noc(C)c1NC(=O)N(C)C[C@H]1OCCCC[C@H](C)Oc2ccc(NC(=O)NC3CCCCC3)cc2C(=O)N([C@@H](C)CO)C[C@@H]1C`: the cytotoxicity call with HSkMC and in the assay with HepG2 was “inactive” each time. For the same compound, the growth inhibition call in the assay on S. aureus RN4220 was “inactive”.

On to `C[C@@H]1CCCCO[C@@H](CN(C)Cc2ccc3c(c2)OCO3)[C@H](C)CN([C@H](C)CO)C(=O)c2cc(NC(=O)Cc3ccccc3)ccc2O1`, for which the cytotoxicity call with HSkMC and in the assay on HepG2 was “inactive” throughout. For the same compound, in the assay on S. aureus RN4220, the growth inhibition call is “inactive”.

Take `Cc1noc(C)c1NC(=O)Nc1cccc2c1O[C@@H](CN(C)S(=O)(=O)c1cn(C)cn1)[C@H](C)CN([C@@H](C)CO)C2=O`: the cytotoxicity call in the assay with HSkMC and in the assay with HepG2 was “inactive” throughout. Besides, the growth inhibition call with S. aureus RN4220 is “inactive”.

Turning to `CC(C)NC(=O)N(C)C[C@@H]1Oc2ccc(NC(=O)Cc3ccccc3)cc2CC(=O)N([C@H](C)CO)C[C@@H]1C`, the cytotoxicity call with HSkMC and in the assay with HepG2 was “inactive” each time. In the assay with S. aureus RN4220, the growth inhibition call is “inactive”.

For `COc1ccccc1CN(C)C[C@@H]1OCc2ccccc2-c2c(n(C)c3ccccc23)C(=O)N([C@H](C)CO)C[C@H]1C`, the cytotoxicity call with HSkMC and in the assay on HepG2 was “inactive” in each case. For the same compound, the growth inhibition call in the assay on S. aureus RN4220 was “inactive”.

In the case of `C[C@@H]1CCCCO[C@@H](CN(C)Cc2ccncc2)[C@@H](C)CN([C@@H](C)CO)C(=O)c2cc(NC(=O)Cc3ccccc3)ccc2O1`, the cytotoxicity call in the assay on HSkMC and with HepG2 was “inactive” each time. The growth inhibition call in the assay on S. aureus RN4220 is “inactive”.

As to `Cc1noc(C)c1S(=O)(=O)N(C)C[C@H]1Oc2ccc(NC(=O)Nc3ccc4c(c3)OCO4)cc2CC(=O)N([C@H](C)CO)C[C@@H]1C`, the cytotoxicity call in the assay on HSkMC and with HepG2 was “inactive” each time. The growth inhibition call in the assay with S. aureus RN4220 was “inactive”.

For the compound `CC(=O)N[C@H]1[C@H](Oc2nc3cc(C)ccc3o2)O[C@H](CO)[C@@H](O)[C@@H]1O`, the cytotoxicity call in the assay on HSkMC (human skeletal muscle cells) and in the assay on HepG2 was “inactive” throughout. The growth inhibition call in the assay with S. aureus RN4220 was “inactive”.

The values are drawn from the antibiotic and cytotoxicity screens of Wong et al. (2023).
